Experimental data published in publication PMC9643514.
Results are given in words; binding and its absence hold for the method and conditions named. For some of these results: In cells and extracts the contact can be indirect. Some binding calls cover weakened binding; strength is not graded here. For some of these results: Sequences can lack the tags named with a protein.

Protein sequences, listed by entry. Tags and fused reporters are not part of them. Residues count along the entry.
UniProt P38398: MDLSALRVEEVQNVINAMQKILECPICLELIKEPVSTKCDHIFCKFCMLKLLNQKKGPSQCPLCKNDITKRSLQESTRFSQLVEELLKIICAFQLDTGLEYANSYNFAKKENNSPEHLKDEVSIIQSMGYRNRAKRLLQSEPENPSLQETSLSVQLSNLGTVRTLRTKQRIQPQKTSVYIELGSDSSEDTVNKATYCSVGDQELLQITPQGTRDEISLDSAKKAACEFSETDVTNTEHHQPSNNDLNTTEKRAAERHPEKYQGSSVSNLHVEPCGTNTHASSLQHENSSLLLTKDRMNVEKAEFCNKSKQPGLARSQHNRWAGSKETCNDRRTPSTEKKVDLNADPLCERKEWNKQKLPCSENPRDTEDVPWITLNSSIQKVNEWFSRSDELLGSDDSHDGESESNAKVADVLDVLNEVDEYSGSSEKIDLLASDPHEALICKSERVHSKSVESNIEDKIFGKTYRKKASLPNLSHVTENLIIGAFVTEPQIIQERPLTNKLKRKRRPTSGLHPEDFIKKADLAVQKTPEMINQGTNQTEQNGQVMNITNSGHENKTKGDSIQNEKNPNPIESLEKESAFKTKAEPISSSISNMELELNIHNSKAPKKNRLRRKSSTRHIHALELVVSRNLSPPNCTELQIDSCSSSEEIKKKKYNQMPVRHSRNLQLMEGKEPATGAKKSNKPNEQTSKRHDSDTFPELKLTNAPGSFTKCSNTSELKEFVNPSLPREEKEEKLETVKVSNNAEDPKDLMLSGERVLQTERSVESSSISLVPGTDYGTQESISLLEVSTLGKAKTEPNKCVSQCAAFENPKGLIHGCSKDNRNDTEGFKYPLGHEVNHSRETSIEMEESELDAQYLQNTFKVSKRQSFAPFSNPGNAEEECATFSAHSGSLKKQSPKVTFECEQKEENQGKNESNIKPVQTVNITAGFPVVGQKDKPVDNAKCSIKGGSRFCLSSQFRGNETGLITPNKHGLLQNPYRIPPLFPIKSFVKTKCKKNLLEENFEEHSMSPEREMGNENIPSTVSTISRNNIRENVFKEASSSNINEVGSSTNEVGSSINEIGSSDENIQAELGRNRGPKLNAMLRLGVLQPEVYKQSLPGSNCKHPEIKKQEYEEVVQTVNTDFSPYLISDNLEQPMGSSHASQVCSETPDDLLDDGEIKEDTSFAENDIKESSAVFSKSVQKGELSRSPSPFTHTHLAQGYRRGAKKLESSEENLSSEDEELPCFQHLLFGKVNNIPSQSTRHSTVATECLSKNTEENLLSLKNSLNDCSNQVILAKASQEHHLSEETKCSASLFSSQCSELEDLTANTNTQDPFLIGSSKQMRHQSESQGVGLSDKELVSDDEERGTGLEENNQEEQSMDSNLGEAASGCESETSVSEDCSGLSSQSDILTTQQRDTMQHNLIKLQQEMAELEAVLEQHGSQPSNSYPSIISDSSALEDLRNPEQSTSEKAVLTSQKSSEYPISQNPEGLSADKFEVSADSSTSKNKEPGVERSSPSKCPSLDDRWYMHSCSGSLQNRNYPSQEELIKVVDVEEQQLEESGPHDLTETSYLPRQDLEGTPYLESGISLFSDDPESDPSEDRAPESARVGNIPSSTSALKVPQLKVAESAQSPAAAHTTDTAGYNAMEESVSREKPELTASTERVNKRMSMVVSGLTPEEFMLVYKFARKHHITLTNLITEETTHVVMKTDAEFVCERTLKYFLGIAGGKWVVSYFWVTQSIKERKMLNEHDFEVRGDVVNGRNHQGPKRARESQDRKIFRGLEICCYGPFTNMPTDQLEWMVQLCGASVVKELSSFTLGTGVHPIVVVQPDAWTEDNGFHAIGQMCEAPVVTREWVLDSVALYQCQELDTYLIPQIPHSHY
UniProt Q99728, residues 566-777: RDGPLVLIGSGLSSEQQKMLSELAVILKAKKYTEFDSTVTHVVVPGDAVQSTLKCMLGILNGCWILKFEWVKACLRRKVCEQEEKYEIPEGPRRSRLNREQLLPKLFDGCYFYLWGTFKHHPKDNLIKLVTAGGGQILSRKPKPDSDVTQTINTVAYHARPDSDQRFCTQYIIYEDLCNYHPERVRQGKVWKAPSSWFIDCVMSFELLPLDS

Experiments:
[1] = biological target: endogenous BRCA1 (human (endogenous in HCT116, HeLa)) (UniProt P38398); assay: co-IP; endogenous BRCA1 immunoprecipitated with an anti-BRCA1 antibody (D-9) and protein G beads from HCT116 lysate, immunoblot with anti-IARS1
[2] = biological target: endogenous BRCA1 (human (endogenous in HCT116, HeLa)) (UniProt P38398); assay: co-IP; nuclear fraction of HeLa cells, agarose conjugated with an anti-BRCA1 antibody (D-9 AC) overnight at 4 °C, endogenous proteins
[3] = biological target: Flag-tagged EPRS1 mutant lacking the hairpin loop (human) (UniProt P07814); assay: co-IP; Flag-tagged EPRS1 proteins in HEK293T lysate, anti-Flag M2 agarose beads 2 h at 4 °C, eluted with Flag peptide, immunoblot with anti-IARS1 or anti-LARS1
[4] = biological target: Flag-tagged full-length EPRS1 S691E (human) (UniProt P07814); assay: as above
[5] = biological target: Flag-tagged, full-length EPRS1 wild-type protein (human) (UniProt P07814); assay: as above
[6] = biological target: Flag-tagged full-length EPRS1 S688E (human) (UniProt P07814); assay: as above
[7] = biological target: BRCA1–BARD1 complex (Flag-tagged BRCA1) (UniProt P38398); assay: pull-down; in vitro affinity pull-down of IARS1 with the BRCA1-BARD1 complex via the Flag tag of BRCA1; immunoblot with anti-Flag and anti-His; both purified
[8] = biological target: BRCT domain (residues 566–777) of BARD1 (UniProt Q99728); assay: pull-down; in vitro pull-down of IARS1 with fragments of the BRCA1-BARD1 complex; both purified
[9] = biological target: wild-type Flag-tagged BRCA1 (UniProt P38398); assay: co-IP; Flag-tagged BRCA1 (wild type, ΔRING, ΔBRCT) co-transfected with HA-tagged IARS1 in HEK293T, anti-Flag immunoprecipitation, immunoblot with anti-HA
[10] = biological target: T1, His-IARS1ΔUBX2, C-terminal-truncated human IARS1 (residues 1−1150) (human) (UniProt P41252); assay: pull-down; human His-IARS1 or IARS1ΔUBX2 mixed with human GST-EARS1 at 1:1.5, 30 min at 4 °C, Ni-sepharose beads 2 hr at 4 °C, eluted with 250 mM imidazole in His A buffer (20 mM Tris-HCl pH 7.4, 300 mM NaCl, 7 mM 2-mercaptoethanol, 5% glycerol), SDS-PAGE and Coomassie; both purified
T1 sequence: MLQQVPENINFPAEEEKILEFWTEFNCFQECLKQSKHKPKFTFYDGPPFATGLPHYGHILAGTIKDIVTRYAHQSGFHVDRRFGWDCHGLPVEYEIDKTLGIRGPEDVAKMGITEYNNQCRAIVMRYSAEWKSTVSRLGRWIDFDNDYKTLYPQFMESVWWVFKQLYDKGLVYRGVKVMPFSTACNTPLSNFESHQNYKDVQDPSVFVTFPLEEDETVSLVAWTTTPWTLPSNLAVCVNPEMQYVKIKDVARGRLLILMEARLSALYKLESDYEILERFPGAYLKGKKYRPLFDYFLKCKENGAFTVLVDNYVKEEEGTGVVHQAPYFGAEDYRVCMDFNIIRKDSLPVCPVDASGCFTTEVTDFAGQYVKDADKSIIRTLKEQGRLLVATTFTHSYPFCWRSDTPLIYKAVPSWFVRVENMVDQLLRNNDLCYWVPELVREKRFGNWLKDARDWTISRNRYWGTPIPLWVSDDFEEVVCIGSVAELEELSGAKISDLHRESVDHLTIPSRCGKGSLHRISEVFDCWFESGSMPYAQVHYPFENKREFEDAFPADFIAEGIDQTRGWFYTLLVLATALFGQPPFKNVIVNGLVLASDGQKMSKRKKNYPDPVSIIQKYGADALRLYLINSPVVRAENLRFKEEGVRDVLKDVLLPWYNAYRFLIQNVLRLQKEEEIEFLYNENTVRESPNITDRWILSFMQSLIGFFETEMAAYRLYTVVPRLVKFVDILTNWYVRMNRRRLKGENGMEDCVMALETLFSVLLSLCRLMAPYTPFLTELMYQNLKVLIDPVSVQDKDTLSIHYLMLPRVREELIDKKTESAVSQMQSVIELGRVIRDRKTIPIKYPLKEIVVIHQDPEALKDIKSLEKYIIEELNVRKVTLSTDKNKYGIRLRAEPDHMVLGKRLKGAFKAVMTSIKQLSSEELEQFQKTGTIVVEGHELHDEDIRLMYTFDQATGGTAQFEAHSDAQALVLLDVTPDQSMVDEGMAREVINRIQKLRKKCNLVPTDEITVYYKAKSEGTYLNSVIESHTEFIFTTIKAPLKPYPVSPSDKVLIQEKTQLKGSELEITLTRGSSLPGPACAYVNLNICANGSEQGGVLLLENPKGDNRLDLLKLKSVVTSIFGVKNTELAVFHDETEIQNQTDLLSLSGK

B1: endogenous IARS1 (enzyme, UniProt P41252 1-1262)
chain: MLQQVPENINFPAEEEKILEFWTEFNCFQECLKQSKHKPKFTFYDGPPFATGLPHYGHILAGTIKDIVTRYAHQSGFHVDRRFGWDCHGLPVEYEIDKTLGIRGPEDVAKMGITEYNNQCRAIVMRYSAEWKSTVSRLGRWIDFDNDYKTLYPQFMESVWWVFKQLYDKGLVYRGVKVMPFSTACNTPLSNFESHQNYKDVQDPSVFVTFPLEEDETVSLVAWTTTPWTLPSNLAVCVNPEMQYVKIKDVARGRLLILMEARLSALYKLESDYEILERFPGAYLKGKKYRPLFDYFLKCKENGAFTVLVDNYVKEEEGTGVVHQAPYFGAEDYRVCMDFNIIRKDSLPVCPVDASGCFTTEVTDFAGQYVKDADKSIIRTLKEQGRLLVATTFTHSYPFCWRSDTPLIYKAVPSWFVRVENMVDQLLRNNDLCYWVPELVREKRFGNWLKDARDWTISRNRYWGTPIPLWVSDDFEEVVCIGSVAELEELSGAKISDLHRESVDHLTIPSRCGKGSLHRISEVFDCWFESGSMPYAQVHYPFENKREFEDAFPADFIAEGIDQTRGWFYTLLVLATALFGQPPFKNVIVNGLVLASDGQKMSKRKKNYPDPVSIIQKYGADALRLYLINSPVVRAENLRFKEEGVRDVLKDVLLPWYNAYRFLIQNVLRLQKEEEIEFLYNENTVRESPNITDRWILSFMQSLIGFFETEMAAYRLYTVVPRLVKFVDILTNWYVRMNRRRLKGENGMEDCVMALETLFSVLLSLCRLMAPYTPFLTELMYQNLKVLIDPVSVQDKDTLSIHYLMLPRVREELIDKKTESAVSQMQSVIELGRVIRDRKTIPIKYPLKEIVVIHQDPEALKDIKSLEKYIIEELNVRKVTLSTDKNKYGIRLRAEPDHMVLGKRLKGAFKAVMTSIKQLSSEELEQFQKTGTIVVEGHELHDEDIRLMYTFDQATGGTAQFEAHSDAQALVLLDVTPDQSMVDEGMAREVINRIQKLRKKCNLVPTDEITVYYKAKSEGTYLNSVIESHTEFIFTTIKAPLKPYPVSPSDKVLIQEKTQLKGSELEITLTRGSSLPGPACAYVNLNICANGSEQGGVLLLENPKGDNRLDLLKLKSVVTSIFGVKNTELAVFHDETEIQNQTDLLSLSGKTLCVTAGSAPSLINSSSTLLCQYINLQLLNAKPQECLMGTVGTLLLENPLGQNGLTHQGLLYEAAKVFGLRSRKLKLFLNETQTQEITEDIPVKTLNMKTVYVSVLPTTADF
- binding [1]: binds
- binding [2]: binds
- binding [3]: binds weakly
- binding [4]: no binding
- binding [5]: binds
- binding [6]: no binding

B2: His-IARS1, full-length human IARS1 (residues 1−1262) (enzyme, UniProt P41252 1-1262)
chain: B1 chain
- binding [7]: binds
- binding [8]: no binding

B3: HA-tagged IARS1 (enzyme, UniProt P41252 1-1262)
chain: B1 chain
- binding [9]: binds

B4: GST-EARS1 with three WHEP motifs (human EPRS1 residues 1–1015) (domain or fragment, UniProt P07814 1-1015)
chain: MATLSLTVNSGDPPLGALLAVEHVKDDVSISVEEGKENILHVSENVIFTDVNSILRYLARVATTAGLYGSNLMEHTEIDHWLEFSATKLSSCDSFTSTINELNHCLSLRTYLVGNSLSLADLCVWATLKGNAAWQEQLKQKKAPVHVKRWFGFLEAQQAFQSVGTKWDVSTTKARVAPEKKQDVGKFVELPGAEMGKVTVRFPPEASGYLHIGHAKAALLNQHYQVNFKGKLIMRFDDTNPEKEKEDFEKVILEDVAMLHIKPDQFTYTSDHFETIMKYAEKLIQEGKAYVDDTPAEQMKAEREQRIDSKHRKNPIEKNLQMWEEMKKGSQFGQSCCLRAKIDMSSNNGCMRDPTLYRCKIQPHPRTGNKYNVYPTYDFACPIVDSIEGVTHALRTTEYHDRDEQFYWIIEALGIRKPYIWEYSRLNLNNTVLSKRKLTWFVNEGLVDGWDDPRFPTVRGVLRRGMTVEGLKQFIAAQGSSRSVVNMEWDKIWAFNKKVIDPVAPRYVALLKKEVIPVNVPEAQEEMKEVAKHPKNPEVGLKPVWYSPKVFIEGADAETFSEGEMVTFINWGNLNITKIHKNADGKIISLDAKLNLENKDYKKTTKVTWLAETTHALPIPVICVTYEHLITKPVLGKDEDFKQYVNKNSKHEELMLGDPCLKDLKKGDIIQLQRRGFFICDQPYEPVSPYSCKEAPCVLIYIPDGHTKEMPTSGSKEKTKVEATKNETSAPFKERPTPSLNNNCTTSEDSLVLYNRVAVQGDVVRELKAKKAPKEDVDAAVKQLLSLKAEYKEKTGQEYKPGNPPAEIGQNISSNSSASILESKSLYDEVAAQGEVVRKLKAEKSPKAKINEAVECLLSLKAQYKEKTGKEYIPGQPPLSQSSDSSPTRNSEPAGLETPEAKVLFDKVASQGEVVRKLKTEKAPKDQVDIAVQELLQLKAQYKSLIGVEYKPVSATGAEDKDKKKKEKENKSEKQNKPQKQNDGQRKDPSKNQGGGLSSSGAGEGQGPKKQTRLG
- binding [10]: no binding
